This is one part of the list. Sequences were assembled here from the parent chain. Values near 0.05 are background.

B1: TEV protease; numbered along this chain (parent)
chain: MGESLFKGPRDYNPISSSICHLTNESDGHTTSLYGIGFGPFIITNKHLFRRNNGTLVVQSLHGVFKVKDTTTLQQHLVDGRDMIIIRMPKDFPPFPQKLKFREPQREERICLVTTNFQTKSMSSMVSDTSCTFPSGDGIFWKHWIQTKDGQCGSPLVSTRDGFIVGIHSASNFTNTNNYFTSVPKNFMELLTNQEAQQWVSGWRLNADSVLWGGHKVFMVKPEEPFQPVKEATQL

Variants of B1 are the subject of this experiment. Kind of experiment: raw area under fraction-flipped curve 0-4 h after induction (AUC4h, not background-subtracted), DNA-recorder readout of cleavage of the substrate (dimensionless); higher = more cleavage of the substrate by the protease variant. The following applies: temperature: 34 °C; time window: 0-4 h after rhamnose induction.
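Note: Bxb1 expression induced with 0.2% (w/v) L-rhamnose at OD600 near 0.5, cultures sampled hourly, flipped fraction per protease–substrate barcode pair counted by paired-end Illumina sequencing.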

As to MGESLFKGPRDYNPISSSICHLTNESDGHTTSLYGIGFGPFIITNYHLFRRNNGTLVVQSLHGVFKVKDTTTLQQHLVDGRDMIIIRMPKDFPPFPQKLKFREPQREERICLVTTNFQTKSMSSMVSDTSCTFPSGDGIFWKHWIQTKDGQCGSPLVSTRDGFIVGIHSASNFTNTNNYFTSVPKNFMELLTNQEAQQWVSGWRLNADSVLWGGHKVFMVKPEEPFQPVKEATQL [K46Y], the “area with substrate ENLYDQS” value came to 0.065, the “area with substrate ENLYEQS” value turned out to be 0.0625, the “area with substrate ENLYGQS” value was 0.0563 and the “area with substrate ENLYHQS” value stood at 0.0555. Further, the “area with substrate ENLYIQS” value was 0.0035, the “area with substrate ENLYKQS” value is 0.0552, the “area with substrate ENLYLQS” value turned out to be 0.0473 and the “area with substrate ENLYMQS” value turned out to be 0.0605. Moreover, the “area with substrate ENLYNQS” value amounted to 0.0448, the “area with substrate ENLYPQS” value was determined as 0.0572, the “area with substrate ENLYQQS” value was found to be 0.0549 and the “area with substrate ENLYRQS” value stood at 0.0625. Besides, the “area with substrate ENLYSQS” value turned out to be 0.0488, the “area with substrate ENLYTQS” value came to 0.0523, the “area with substrate ENLYVQS” value stood at 0.0789 and the “area with substrate ENLYWQS” value came to 0.0435.

As to MGESLFKGPRDYNPISSSICHLTNESDGHTTSLYGIGFGPFIITNKHLFRRNNGTLVVQSLHGVFKVKDTTTLQQHLVDGRDMIIIRMPKDFPPFPQKLKFREPQREERICLVTTNFQTKSMSSMVSDTSCTFPSGDGIFGKHWIQTKDGQCGSPLVSTRDGFIVGIHSASNFTNTNNYFTSVPKNFMELLTNQEAQQWVSGWRLNADSVLWGGHKVFMVKPEEPFQPVKEATQL [W141G], the “area with substrate ENLYDQS” value came to 0.0497, the “area with substrate ENLYEQS” value was found to be 0.0592, the “area with substrate ENLYHQS” value turned out to be 0.0522 and the “area with substrate ENLYKQS” value turned out to be 0.0507. Also, the “area with substrate ENLYMQS” value stood at 0.0564, the “area with substrate ENLYNQS” value was determined as 0.0589, the “area with substrate ENLYPQS” value is 0.0522 and the “area with substrate ENLYQQS” value was 0.0708. Besides, the “area with substrate ENLYRQS” value was 0.0478, the “area with substrate ENLYTQS” value worked out at 0.0603, the “area with substrate ENLYVQS” value was 0.043 and the “area with substrate ENLYWQS” value came to 0.0558. Further, the “area with substrate ENLYYQS” value worked out at 0.0535.

Turning to MGESLFKGPRDYNPISSSICHLTNESDGHTTSLYGIGFGPFIITNKHLFRRNNGTLVVQSLHGVFKVKDTTTLQQHLVDRRDMIIIRMPKDFPPFPQKLKFREPQREERICLVTTNFQTKSMSSMVSDTSCTFPSGDGIFWKHWIQTKDGQCGSPLVSTRDGFIVGIHSASNFTNTNNYFTSVPKNFMELLTNQEAQQWVSGWRLNADSVLWGGHKVFMVKPEEPFQPVKEATQL [G80R], the “area with substrate ENLYDQS” value is 0.0656, the “area with substrate ENLYEQS” value worked out at 0.0594, the “area with substrate ENLYGQS” value came out at 0.0124 and the “area with substrate ENLYHQS” value came out at 0.0777. Moreover, the “area with substrate ENLYIQS” value came out at 0.138, the “area with substrate ENLYKQS” value turned out to be 0.0744, the “area with substrate ENLYMQS” value was 0.0693 and the “area with substrate ENLYNQS” value came out at 0.0654. Also, the “area with substrate ENLYPQS” value was 0.0683, the “area with substrate ENLYRQS” value amounted to 0.0601, the “area with substrate ENLYSQS” value came out at 0.0856 and the “area with substrate ENLYYQS” value was determined as 0.0709.

With MGESLFKGPRDYNPISSSICHLTNESDGHTTSLYGIGFGPVIITNKHLFRRNNGTLVVQSLHGVFKVKDTTTLQQHLVDGRDMIIIRMPKDFPPFPQKLKFREPQREERICLVTTNFQTKSMSSMVSDTSCTFPSGDGIFWKHWIQTKDGQCGSPLVSTRDGFIVGIHSASNFTNTNNYFTSVPKNFMELLTNQEAQQWVSGWRLNADSVLWGGHKVFMVKPEEPFQPVKEATQL [F41V], the “area with substrate ENLYDQS” value is 0.056, the “area with substrate ENLYEQS” value is 0.108, the “area with substrate ENLYGQS” value came to 0.0674 and the “area with substrate ENLYHQS” value came out at 0.0664. The “area with substrate ENLYIQS” value worked out at 0.123, the “area with substrate ENLYKQS” value was determined as 0.0459, the “area with substrate ENLYMQS” value came to 0.0829 and the “area with substrate ENLYNQS” value was determined as 0.0656. Also, the “area with substrate ENLYPQS” value is 0.093, the “area with substrate ENLYQQS” value was 0.0797, the “area with substrate ENLYRQS” value stood at 0.0501 and the “area with substrate ENLYSQS” value came out at 0.0442. Further, the “area with substrate ENLYTQS” value came out at 0.0764, the “area with substrate ENLYVQS” value was 0.136, the “area with substrate ENLYWQS” value stood at 0.0782 and the “area with substrate ENLYYQS” value is 0.0657.

On to MGESLFKGPRDYNPISSSICHLTNESDGHTTSLYGIGFGPFIITNKHLFRRNNGTLVVQSLHGVFKVKDTTTLQQHLVDGRDMIIIRIPKDFPPFPQKLKFREPQREERICLVTTNFQTKSMSSMVSDTSCTFPSGDGIFWKHWIQTKDGQCGSPLVSTRDGFIVGIHSASNFTNTNNYFTSVPKNFMELLTNQEAQQWVSGWRLNADSVLWGGHKVFMVKPEEPFQPVKEATQL [M88I], for which the “area with substrate ENLYDQS” value was 0.0487, the “area with substrate ENLYEQS” value was 0.0637, the “area with substrate ENLYGQS” value was 0.0609 and the “area with substrate ENLYHQS” value was 0.0819. The “area with substrate ENLYIQS” value was 0.103, the “area with substrate ENLYKQS” value amounted to 0.0567, the “area with substrate ENLYMQS” value was 0.0931 and the “area with substrate ENLYNQS” value came to 0.0508. The “area with substrate ENLYPQS” value is 0.0732, the “area with substrate ENLYQQS” value was found to be 0.0569, the “area with substrate ENLYSQS” value came to 0.0614 and the “area with substrate ENLYTQS” value amounted to 0.0678. The “area with substrate ENLYVQS” value was 0.109 and the “area with substrate ENLYWQS” value came out at 0.0692.

Consider MGESLFKGPRDYNPISSSICHLTNESDGHTTSLIGIGFGPFIITNKHLFRRNNGTLVVQSLHGVFKVKDTTTLQQHLVDGRDMIIIRMPKDFPPFPQKLKFREPQREERICLVTTNFQTKSMSSMVSDTSCTFPSGDGIFWKHWIQTKDGQCGSPLVSTRDGFIVGIHSASNFTNTNNYFTSVPKNFMELLTNQEAQQWVSGWRLNADSVLWGGHKVFMVKPEEPFQPVKEATQL [Y34I], for which the “area with substrate ENLYDQS” value is 0.0616, the “area with substrate ENLYHQS” value stood at 0.0356, the “area with substrate ENLYIQS” value was 0.108 and the “area with substrate ENLYKQS” value is 0.0693. Besides, the “area with substrate ENLYMQS” value is 0.0664, the “area with substrate ENLYQQS” value was found to be 0.064, the “area with substrate ENLYTQS” value came out at 0.0832 and the “area with substrate ENLYVQS” value came out at 0.092. Moreover, the “area with substrate ENLYYQS” value worked out at 0.0561.

As to MGESLFKGPRDYNPISSSICHLTNESDGHTTSLFGIGFGPFIITNKHLFRRNNGTLVVQSLHGVFKVKDTTTLQQHLVDGRDMIIIRMPKDFPPFPQKLKFREPQREERICLVTTNFQTKSMSSMVSDTSCTFPSGDGIFWKHWIQTKDGQCGSPLVSTRDGFIVGIHSASNFTNTNNYFTSVPKNFMELLTNQEAQQWVSGWRLNADSVLWGGHKVFMVKPEEPFQPVKEATQL [Y34F], the “area with substrate ENLYDQS” value came out at 0.0653, the “area with substrate ENLYEQS” value was 0.0479, the “area with substrate ENLYGQS” value is 0.067 and the “area with substrate ENLYHQS” value was 0.0658. Moreover, the “area with substrate ENLYIQS” value stood at 0.13, the “area with substrate ENLYKQS” value was found to be 0.0657, the “area with substrate ENLYMQS” value is 0.108 and the “area with substrate ENLYNQS” value was 0.0702. Further, the “area with substrate ENLYPQS” value amounted to 0.0555, the “area with substrate ENLYRQS” value turned out to be 0.055 and the “area with substrate ENLYWQS” value stood at 0.0775.

Regarding MGESLFKGPRDYNPISSSICHLTNESDGHTTSLYGIGFGPFIITNKHLFRRNNGTLVVQSLHGVFKVKDTTTLQQHLVDGRDMIIIRMPKDFPPFPQKLKFREPQREERICLVTTNFQTKSMSSMVSDTSCTFPSGDGIFWKHWIQTKDGQCGSPLVSTRDGFISGIHSASNFTNTNNYFTSVPKNFMELLTNQEAQQWVSGWRLNADSVLWGGHKVFMVKPEEPFQPVKEATQL [V165S], the “area with substrate ENLYDQS” value was determined as 0.0551, the “area with substrate ENLYEQS” value worked out at 0.0662, the “area with substrate ENLYGQS” value stood at 0.0569 and the “area with substrate ENLYHQS” value was 0.0489. Moreover, the “area with substrate ENLYIQS” value is 0.0212, the “area with substrate ENLYKQS” value is 0.0568, the “area with substrate ENLYMQS” value worked out at 0.0514 and the “area with substrate ENLYNQS” value was 0.0341. The “area with substrate ENLYPQS” value was 0.048, the “area with substrate ENLYQQS” value amounted to 0.0529, the “area with substrate ENLYRQS” value came to 0.0536 and the “area with substrate ENLYSQS” value was found to be 0.0455. The “area with substrate ENLYTQS” value is 0.0749, the “area with substrate ENLYVQS” value was determined as 0.0414 and the “area with substrate ENLYYQS” value worked out at 0.0527.

Take MGESLFKGPRDYNPISSSICHLTNESDGHTTSLYGIGFGPFIITNKHLFRRNNGTLVVQSLHGVFKVKDTTTLQQHLVDGRDMIIIRMPKDFPPFPQKLKFREPQREERICLVTTNFQTKSMSSMVSDTSCTFPSGDGIFWKHWIQTPDGQCGSPLVSTRDGFIVGIHSASNFTNTNNYFTSVPKNFMELLTNQEAQQWVSGWRLNADSVLWGGHKVFMVKPEEPFQPVKEATQL [K148P]: the “area with substrate ENLYDQS” value was found to be 0.0726, the “area with substrate ENLYEQS” value turned out to be 0.0611, the “area with substrate ENLYGQS” value came out at 0.0651 and the “area with substrate ENLYHQS” value worked out at 0.0569. Further, the “area with substrate ENLYIQS” value was 0.0706, the “area with substrate ENLYKQS” value was determined as 0.06, the “area with substrate ENLYMQS” value was 0.0594 and the “area with substrate ENLYNQS” value amounted to 0.0609. Moreover, the “area with substrate ENLYPQS” value is 0.0716, the “area with substrate ENLYRQS” value stood at 0.0743 and the “area with substrate ENLYTQS” value came to 0.0523.
